Measurements taken from the supplement of paper PMC5919970.
Several values for one entry are separate records, joined by “and”; a condition that tells them apart may be missing. Equal entries are not always repeated. Structures can show the parent of a compound that is named as a salt. In all, about 2,000 compounds were measured (“fractional viability relative to vehicle”: median about 0.91, lowest 2% from about 0.045 on). The list shows a part of the results.

Tested on: TYKNU
Assay: fractional viability relative to vehicle; TYKNU is a high-grade serous ovarian cancer line; higher = less growth inhibition
Settings: 72 h
In short: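 TYKNU control cells or lentiCRISPRv2 knockout derivatives were plated at 500 cells per well in duplicate into drug-stamped 384-well plates holding a ~2100-compound library at 2 or 10 μM. Culture was in RPMI 1640 with 10% FBS at 37 °C in 5% CO2, with 72 h of drug treatment. Viability was measured by Cell Titer Glo luminescence, and the averaged duplicate treatment wells were normalised to duplicate control wells at the same plate position.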

[1] = 2uM, genotype: DNM1L knockout (sgDNM1L #1)
[2] = 2uM, genotype: sgCTRLA1 (non-targeting control)
[3] = 10uM, genotype: DNM1L knockout (sgDNM1L #1)
[4] = 10uM, genotype: sgCTRLA1 (non-targeting control)

Compound	fractional viability [1]	fractional viability [2]	fractional viability [3]	fractional viability [4]
CC(C)c1cc(C(C)C)c(CC(=O)NS(=O)(=O)Oc2c(C(C)C)cccc2C(C)C)c(C(C)C)c1 [Avasimibe]	0.829	1.14	0.685	0.95
O=C(NNc1nc2cc(F)ccc2n2cccc12)c1cnccn1	0.358	0.282	0.269	0.247
CN1CCN(Cc2ccc(-c3cnc4[nH]cc(-c5ccc6[nH]ccc6c5)c4c3)cc2)CC1	0.871	0.867	0.803	0.55
CCOC(=O)C1=C(C)NC(C)=C(C(=O)OC)C1c1cccc(Cl)c1Cl (stereo unspecified) [Felodipine]	0.974	1.09	0.62	0.833
O=C1c2c(O)ccc(O)c2C(=O)c2c(NCCNCCO)ccc(NCCNCCO)c21 [Mitoxantrone HCl]	0.0827	0.13	0.12	0.0844
O=C1c2c(O)ccc(O)c2C(=O)c2c(NCCNCCO)ccc(NCCNCCO)c21 [Mitoxantrone]	0.0816	0.0813	0.163	0.102
CCOC(=O)c1ccc(NC2CCCCC2)c(N)c1 [Ferrostatin-1 (Fer-1)]	0.882	1.21	0.89	1.15
CC1(C)CC[C@]2(NC(=O)C(C)(F)F)CC[C@]3(C)[C@H](C(=O)C=C4[C@@]5(C)C=C(C#N)C(=O)C(C)(C)[C@@H]5CC[C@]43C)[C@@H]2C1 [Omaveloxolone (RTA-408)]	0.0849	0.0407	0.0223	0.00825
CCCCc1ncc(/C=C(\Cc2cccs2)C(=O)O)n1Cc1ccc(C(=O)O)cc1 [Eprosartan Mesylate]	1.08	1.19	0.878	1.08
CN1CCN2c3ccccc3Cc3ccccc3C2C1 (stereo unspecified) [Mianserin HCl]	0.971	1.12	1.04	0.982
CN1CCCN(C(=O)c2cccc(-c3ccc(/C=C4/C(=O)Nc5ccc(Cl)cc54)o3)c2)CC1	0.0585	0.0575	0.0139	0.00867
CCCCCCCCOc1ccccc1C(=O)Nc1ccc(C(=O)OCC[N+](C)(CC)CC)cc1 [Otilonium Bromide]	1.09	1.11	0.627	0.896
CN(c1ncccc1CNc1nc(Nc2ccc3c(c2)CC(=O)N3)ncc1C(F)(F)F)S(C)(=O)=O	0.755 and 0.589 and 0.763	0.978 and 0.761 and 1.01	0.235 and 0.298 and 0.207	0.262 and 0.214 and 0.253
CCc1ccc(OCc2ccccc2C(=O)Nc2ccc3nc(C)cc(N)c3c2)cc1	0.117	0.166	0.0139	0.00672
CN(C)CCc1c[nH]c2ccc(CS(=O)(=O)N3CCCC3)cc12 [Almotriptan Malate]	1.02	1.18	0.947	1.02
Cn1nc(C(C)(C)C)cc1C(=O)N[C@@H](Cc1cccc(Cl)c1)C(=O)NCC#N [Cathepsin Inhibitor 1]	1.08	1.11	0.773	1.05
Clc1cccc(CN=C2Nc3ccccc3NC23CCNCC3)c1 [Liproxstatin-1]	0.75	0.957	0.646	0.651
CC(CNC(=O)c1cccnc1)NC(=O)c1cccnc1 (stereo unspecified) [Nicaraven]	0.754	1.07	0.726	0.99
O=C(Nc1ccccc1)N1CCN(c2nc(-c3ccccc3)ns2)CC1	1.06	1.14	0.828	0.976
Cc1cnc(NC(=O)Nc2cc(Br)c(C)cc2OC[C@@H]2CNCCO2)cn1	0.271	0.253	0.185	0.122

Compound	fractional viability [1]	fractional viability [2]	fractional viability [3]	fractional viability [4]
Cc1ccc(Sc2cncc3sc(C(N)=O)cc23)cc1	1	1.16	0.952	1.26
Cc1c(C(=O)Nc2ccc(N3C[C@@H](C)O[C@@H](C)C3)nc2)cccc1-c1ccc(OC(F)(F)F)cc1 [LDE225 (NVP-LDE225,Erismodegib)]	1	0.948	0.856	0.869
Nc1cc(C(F)(F)F)c(-c2cc(N3CCOCC3)nc(N3CCOCC3)n2)cn1 [BKM120 (NVP-BKM120, Buparlisib)]	0.213	0.292	0.112	0.108
O=c1cc(N2CCOCC2)oc2c(-c3ccccc3)cccc12	1.16	0.976	0.985	0.969
COc1cccc(-c2cc(F)ccc2C2Cc3nc(N)nc(C)c3C(=O)N2)n1 (stereo unspecified)	0.241	0.191	0.227	0.201
Cc1ccc(Nc2nccc(N(C)c3ccc4c(C)n(C)nc4c3)n2)cc1S(N)(=O)=O [Pazopanib]	0.87	0.956	0.431	0.481
CCc1ccc(/C=C2/SC(=S)NC2=O)cc1	0.804	1.18	0.842	1.06
COc1cc(Nc2ncc3c(n2)-c2ccc(Cl)cc2C(c2c(F)cccc2OC)=NC3)ccc1C(=O)O [Alisertib (MLN8237)]	0.448	0.516	0.437	0.527
CCCCC(=O)N(Cc1ccc(-c2ccccc2-c2nnn[nH]2)cc1)[C@H](C(=O)O)C(C)C [Valsartan]	0.97	1.14	0.887	1.11
OCC(CO)N[C@H]1C[C@](O)(CO)[C@@H](O)[C@H](O)[C@H]1O [Voglibose]	0.971	1.12	0.93	1.05
Nc1ccc(/N=N/c2ccccc2)c(N)n1 [Phenazopyridine HCl]	0.99	1.13	0.921	0.977
CCC(=O)O[C@]1(C(=O)SCF)[C@H](C)C[C@H]2[C@@H]3C[C@H](F)C4=CC(=O)C=C[C@]4(C)[C@@]3(F)[C@@H](O)C[C@@]21C [Fluticasone propionate]	1.02	1.08	0.696	0.853
Cc1[nH]nc2ccc(-c3cncc(OC[C@@H](N)Cc4ccccc4)c3)cc12	0.23	0.212	0.137	0.0399
CC(C)[C@H](O)C(=O)N[C@@H](C)C(=O)N[C@@H]1C(=O)N(C)CCc2ccccc21	1.04	1.25	0.949	1.15
CCCc1cc2c(N3CCN(C4=NCC(C)(C)S4)CC3)ncnc2s1 [MI-2 (Menin-MLL Inhibitor)]	0.919	0.869	0.747	0.665
CNCc1ccc(C)c(NC(=O)c2ccc(Nc3nc(-c4ccccc4)c4ccccc4n3)cc2)c1	0.752	1.03	0.0487	0.0706
CCCCN1CCCC[C@H]1C(=O)Nc1c(C)cccc1C [Levobupivacaine HCl]	0.971	0.957	0.672	1.05
COc1cc(CCc2cc(NC(=O)c3ccc(N4CC(C)NC(C)C4)cc3)n[nH]2)cc(OC)c1 (stereo unspecified)	1.27	1.13	0.294	0.312
Nc1ccc(C(=O)O)c(O)c1 [Sodium 4-Aminosalicylate]	1.17	1.06	0.909	0.987
O=C(O)c1ccccc1Nc1cccc(C(F)(F)F)c1 [Flufenamic acid]	0.947	1.18	0.845	1.16

Compound	fractional viability [1]	fractional viability [2]	fractional viability [3]	fractional viability [4]
Cc1cccc(C)c1OCC(=O)N[C@@H](Cc1ccccc1)[C@@H](O)C[C@H](Cc1ccccc1)NC(=O)[C@H](C(C)C)N1CCCNC1=O [Lopinavir]	1.04	1.01	0.751	0.905
O=C1O[C@H]([C@@H](O)CO)C(O)=C1O [Vitamin C]	0.908	1.1	1.02	0.971
Clc1ccc(C(c2ccccc2Cl)C(Cl)Cl)cc1 (stereo unspecified) [Mitotane]	0.981	1.09	1.01	0.994
N#CC[C@H](C1CCCC1)n1cc(-c2ncnc3[nH]ccc23)cn1	1.03	1.08	0.952	0.952
CN(C[C@@H]1COCCO1)S(=O)(=O)Nc1ccc2ccc3ncc(-c4cnn(C)c4)cc3c(=O)c2c1	1.13	1.02	0.423	0.512
CCCc1nn(C)c2c(=O)[nH]c(-c3cc(S(=O)(=O)N4CCN(C)CC4)ccc3OCC)nc12 [Sildenafil Citrate]	1.02	1.12	0.866	0.969
CCC(C)(C)C(=O)O[C@H]1C[C@@H](C)C=C2C=C[C@H](C)[C@H](CC[C@@H]3C[C@@H](O)CC(=O)O3)[C@H]21 [Simvastatin]	0.547	0.562	0.272	0.259
O=C(CSc1nc2c(c(=O)n1-c1ccccc1)SCC2)Nc1ccc(-c2ccccc2)cn1	0.803	0.967	0.732	0.921
CCOC(=O)CC(=O)N1CCSC1COc1ccccc1OC (stereo unspecified) [Moguisteine]	1.11	1.23	0.845	1.1
CC(=O)Oc1ccc(C(c2ccc(OC(C)=O)cc2)c2ccccn2)cc1 [Bisacodyl]	1	1.23	0.82	1.12
CC(C)c1cnn2c(NCc3ccccc3)cc(NCCCCCCN)nc12	1.09	1.13	0.83	0.972
O=S(=O)(c1cccc2cnccc12)N1CCCNCC1 [Fasudil (HA-1077) HCl]	0.99	1.13	0.753	0.991
COc1cc2nc(N3CCCN(C)CC3)nc(NC3CCN(Cc4ccccc4)CC3)c2cc1OC	0.474	0.548	0.0331	0.0181
O=C(c1ccc(F)c(F)c1Nc1ccc(I)cc1F)N1CC(O)([C@@H]2CCCCN2)C1 [Cobimetinib (GDC-0973, RG7420)]	0.814	1.03	0.942	0.846
Cc1c(C(=O)N2CCOc3ccc(-c4ccc(N)nc4)cc3C2)ccc(S(C)(=O)=O)c1F	0.663	0.781	0.338	0.389
CC(C)(O)CC(=O)NCCn1ccc2ncnc(Nc3ccc(Oc4cccc(C(F)(F)F)c4)c(Cl)c3)c21	0.978	1.01	0.443	0.857
C[C@H](Nc1ncnc2nc[nH]c12)c1cc2cccc(Cl)c2c(=O)n1-c1ccccc1	0.77	0.863	0.628	0.78
CC(NCCc1ccc(O)cc1)C(O)c1ccc(O)cc1 (stereo unspecified) [Ritodrine HCl]	0.814	0.85	0.709	0.844
Fc1ccc(CNc2ncnc3ccc(F)cc23)cc1 [Spautin-1]	0.675	0.763	0.67	0.447
